# Laboratory results reported in the supplement of paper PMC11417369.
# ± gives the standard deviation of the averaged measurements. The list shows a part of the results.
# Tested on: PfAP2-LT AP2 domain (GST-tagged)
# Assay: gcPBM binding intensity (ln(normalized median fluorescence intensity)); higher = stronger DNA binding
# How it was run: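 GST-tagged P. falciparum DNA-binding domains, expressed in E. coli (about 25 μg on average), were applied for 1 h to an Agilent 4 × 180k array of primer-extended double-stranded 36-bp intergenic genomic probes plus negative controls. The binding buffer was 1× PBS with 1% milk, 0.2 mg/ml BSA, 0.5% salmon testes DNA and 0.03% Triton X-100. Bound protein was detected with Alexa488 anti-GST antibody and scanned at 488 nm. Binding intensity is the highest Masliner-normalised natural-log median intensity across replicate spots of either probe orientation.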
row,Sequence,gcPBM binding intensity (ln)
1,TATAATATATTATATACACACATTATAAAATACCCA [CACACA_site4858],9.01 ± 0.32
2,AAAAAAAAAAAAAAATGTACATATATATATATATTA [XGTACX_site7330],8.66 ± 0.42
3,CCTTGTCTTTTTTTTTTTTTTTTTTCTTCTTATTTT [GTGCAC_negctrl_site523],8.66 ± 0.52
4,ATAAAATAAGACAAAAAAAAAATATATATATATATA [TGCATGCA_negctrl_site314],9.69 ± 0.099
5,AGTAGATATAATATATGTACATATATATATATATAT [XGTACX_site7186],9.49 ± 0.42
6,AATAAATTTAAACACACACACACATATATATATATA [CACACA_site4621],10.1 ± 0.19
7,TATATACATAAACACACACACACATATATATATATA [CACACA_site8707],9.89 ± 0.2
8,TGCATATACTCAAGCACACATATATATATATATATA [CACACA_site4733],9.76 ± 0.13
9,AATTAATGGTTAAAGGTGCACAATACATATATTACA [GTGCAC_site9943],9.14 ± 0.41
10,ATATTAAACAAACACACACACATATATATATATATA [CACACA_site3383],10.2 ± 0.35
11,ATATATTGAAAATATAGTACATAATAAATGTTCTTT [XGTACX_site8474],8.56 ± 0.4
12,TTTTTTTTTTTTTTTTTTTTTTTTTTTTTTTGGGGG [CACACA_negctrl_site1570],9.26 ± 0.31
13,AATGTAGTTTATCGATGTACACAAAATAAAGAGAAG [XGTACX_site6956],9.03 ± 0.43
14,CCGTACAATTTTGTCACACATAAAATACTTATGTAT [CACACA_site4871],8.71 ± 0.42
15,TAGTATTTATATGATTAACACACATATGGGTATTAA [CACACA_site8363],8.77 ± 0.35
16,CATAATAGTTATAAAATACACACCAGGCATGATAAA [CACACA_site329],9 ± 0.4
17,AAAAAAAAAAAAAAAAGTACTCAATAATAATTACAT [XGTACX_site670],8.5 ± 0.4
18,ATAATGTTCACATAGGTGCACTAATATAATTATCCA [GTGCAC_site9981],8.83 ± 0.38
19,ATATACACCTGAGAGGTGCATATATATAAAATTTAC,8.7 ± 0.42
20,AAAGTAAAAGGGTTTGGTACACATATAATATATTAG [XGTACX_site6036],8.79 ± 0.52
21,CATTTATATAAAGAATGTACACACAGAAATGCACAC [XGTACX_site4718],9.51 ± 0.22
22,AGTAAAAGAAAGCACACACACATGTATTTATGTATG [CACACA_site5998],9.71 ± 0.42

row,Sequence,gcPBM binding intensity (ln)
1,ATAACTTTTATTTGTACACACATACATCTATATTAT [CACACA_site6595],9.4 ± 0.41
2,GTAATTTTTTTCTATACACACATATATATAATATAT [CACACA_site2655],9.03 ± 0.38
3,AATATAAATATAAATATAAATAAATAAATAAATAAA [CACACA_negctrl_site291],8.67 ± 0.55
4,CATTATTATTTTATAACACACACATATATATTATAT [CACACA_site8405],9.21 ± 0.31
5,ATGTTTTTTATTCTTCGTACGTATGAACGATAGTGT [XGTACX_site4225],9.02 ± 0.36
6,AAACGTATGTTATTTACACACCCTTCCACTTTTATA [CACACA_site3337],9.02 ± 0.44
7,TATAAAATAAGACATGCATGTTATACATATATATTT [TGCATGCA_site156],9.03 ± 0.45
8,TTTTTTTTTTCTACAAGTACATATTTTCATTTAACA [XGTACX_site6621],8.49 ± 0.47
9,AAATTAAAAAAAAATAAATAAAAAAAAAAAAAAAAT [CACACA_negctrl_site1611],8.58 ± 0.61
10,AAAAAAAAAAAAAAATGTACATATATATATTATAAA [XGTACX_site518],8.63 ± 0.52
11,ATGTGCAAATATTAAAGTACTAAATTTTATTATTTT [XGTACX_site7306],8.79 ± 0.46
12,ATAAATACATATAAAAGTACACACACACACATATAT [XGTACX_site1744],10.03 ± 0.064
13,TGAAATTTCAATACATGTACATATAAAAAAAAAAAA [XGTACX_site4424],8.79 ± 0.41
14,TGTATATGTGAAGCAAGGGATGCGGCAGACATAACA [CACACA_negctrl_site1339],9.21 ± 0.4
15,GGGTATATATTATTATGTACACATGTATAAAATAAG [XGTACX_site2633],8.8 ± 0.52
16,CAGATAGACTTATATGCATGCATTCACCTGCCAACA [TGCATGCA_site158],8.99 ± 0.5
17,ATATTACATAATATATGTACACACGCAAATACTTAT [XGTACX_site671],9.2 ± 0.31
18,ATGAAATTATATTGGGGTACGTCAAAAAAGGAGATA [XGTACX_site7451],8.83 ± 0.49
19,TAAGCATAAATGTATACATGCGATGCATACACATAT [TGCATGCA_site749],8.82 ± 0.4
20,TTTGTGTATATATAATGTACATTATATTTTTATTAT [XGTACX_site6506],8.95 ± 0.42
21,TATAAATTTATAAATAGTACATATATTTATATATAT [XGTACX_site6433],8.55 ± 0.45
22,ATTAAAAAAAAAGAGCGTACAAATAATTACTTCTTT [XGTACX_site8262],8.55 ± 0.54

row,Sequence,gcPBM binding intensity (ln)
1,AAAAAAAATATACATACATGCATACATAAGTTTCTA [TGCATGCA_site998],8.73 ± 0.52
2,TATATATATGGACACACACACACATATATATATATA [CACACA_site6121],10.3 ± 0.23
3,ATATTAAGAATAAACAGTACATATAATAAATACCAT [XGTACX_site5933],9.03 ± 0.46
4,AAAAAAAAAAAAATTACACACATACATATAATAATA [CACACA_site8680],8.91 ± 0.35
5,AAAAAAAAAAGAAACACACACATTTGTATTTAATAT [CACACA_site5184],9.21 ± 0.37
6,GTGATTTAATTGTGTTGTACATATTTATAAATAAAA [XGTACX_site8966],8.46 ± 0.32
7,GTACAGATAAATATTACACACATTTTCATTTTTAAC [CACACA_site5140],8.97 ± 0.37
8,AAAAAGAAAAAACGAAGTACAATTATAAGATTATAT [XGTACX_site410],8.86 ± 0.47
9,TTGTTCTTTTTTTTTTTATTTTTTAATTTGAAAAGA [CACACA_negctrl_site209],8.21 ± 0.43
10,TATGAAAAATATCTTTGTACTTAGAAATATATACAC [XGTACX_site5393],8.46 ± 0.44
11,TATGTGCCAAGACACACACACATATTTATATTTATA [CACACA_site6360],9.74 ± 0.23
12,TTATTATTATATGAATGTACTTAAAAATACATTTTG [XGTACX_site2959],8.47 ± 0.44
13,ATTCTATATACACGCACACACACTTATATATATATA [CACACA_site3322],9.7 ± 0.22
14,CCCTTTTCTAAATATTGTACGTATAAATTATATTAC [XGTACX_site7676],8.86 ± 0.61
15,AGAGATTATAAAATATGTACTAAATATTAAATCTTA [XGTACX_site7050],8.54 ± 0.47
16,AAAAAAATATTATAATATATATATATATATATATAT [GTGCAC_negctrl_site399],9.03 ± 0.15
17,AAAGAAAGCACATACACACACAAAAAAAAAAAAGAA [CACACA_site776],9.63 ± 0.35
18,AAAGTAAAAATATACTGTACAAATTTTTTCCCCTCT [XGTACX_site171],8.74 ± 0.36
19,ATTTTTTAAAAAGTAACACACACTCTTATAAATAAC [CACACA_site7668],8.87 ± 0.29
20,ATATTTATATACAAATGTACGCATATAATATATATA [XGTACX_site1232],8.77 ± 0.33
21,GATGCACTTTAAAAATGTACTTATACCTTTAATTGT [XGTACX_site6395],8.76 ± 0.41
22,AAACAAAAAAAAAAAAAAAAAAAAAAAAAAAAAAAA [GTGCAC_negctrl_site254],8.21 ± 0.45

row,Sequence,gcPBM binding intensity (ln)
1,GAAATGTATATTTTTACATGCAAATAAAATATATAA [TGCATGCA_site439],8.6 ± 0.4
2,CATACACATAGACACACACACATATATACCTATATA [CACACA_site6644],9.72 ± 0.42
3,ATAACGACCTAGACGTGTACATACAAAGGAATGAAA [XGTACX_site4870],9.17 ± 0.51
4,TTTTTCTTGAATCGAAGTACTTAGGAGGGGATATTT [XGTACX_site2862],8.91 ± 0.014
5,ACACAATATATATATTGTACATACACATATTTACTA [XGTACX_site1872],9 ± 0.38
6,GAATATAAACATATTACACACATCTATAGGTACATT [CACACA_site6983],9.2 ± 0.32
7,AATATATACATATATGTACACACATTACAGATGTAC [CACACA_site8227],9.2 ± 0.29
8,ATAGAATCTGGTAGCTGTACGAGTCGTAGAGTGCAG [XGTACX_site2026],9.06 ± 0.46
9,AGGACTAATATTTGAACACACATATAATATATACAT [CACACA_site3998],9.02 ± 0.45
10,TTTTGTAATTCTCTTCATATAATTTATATATATATA [CACACA_negctrl_site1825],8.56 ± 0.42
11,GTGTTTTTTTTAGATTGTACATATATATATATATAT [XGTACX_site4562],9.43 ± 0.42
12,ACCCAACATATGTGTACACAGAAAATAAATATAATA [CACACA_site5901],9.05 ± 0.49
13,GTATATATTCATATGGAAAATAAAGGAGAAAACAAG [TGCATGCA_negctrl_site220],8.88 ± 0.38
14,ATGTATGTATAATATACACACTCACAAGCATTCAAA [CACACA_site4306],9.08 ± 0.38
15,TTTGTTTTTTCTTTTTGTACATATACAAGATACGTA [XGTACX_site2309],8.63 ± 0.35
16,AATAAAAACTAAACATGTACGCACATATATATATAT [XGTACX_site8096],9.63 ± 0.26
17,TAAGTGCATGAGATATGTACATATATAAAATATATA [XGTACX_site3294],9.08 ± 0.67
18,TAAAAAAAAAAAAATACACACACACCGATATATATA [CACACA_site8498],9.76 ± 0.19
19,TCATAGTCTTAATGACTACACACCTAACTATGCATG [CACACA_site1839],9 ± 0.47
20,ATATATATACATACATACCTATGTATATGTGTAATT [GTGCAC_negctrl_site50],8.82 ± 0.38
21,ATGGTAGTGATTAAAAGTACACGTAATTGTAAAAAT [XGTACX_site387],9.04 ± 0.53
22,TAAACAACTTATAAATGTACACATATTTTAATTACC [XGTACX_site5409],8.69 ± 0.44
